# Measured values reported in publication PMC4336329 (PLoS ONE, 2015).
# Out of some 310,000 compounds screened, about 2,200 (0.71%) showed an effect of 50% or more. The effect is printed as a negative number. The list shows a part of the results.
# Biological target: human ether-à-go-go-related gene (hERG) potassium channel (human, UniProt Q12809)
# Assay: primary screen, population patch clamp on CHO cells stably expressing hERG
# Sequence of human ether-à-go-go-related gene (hERG) potassium channel (Q12809 whole entry, looked up): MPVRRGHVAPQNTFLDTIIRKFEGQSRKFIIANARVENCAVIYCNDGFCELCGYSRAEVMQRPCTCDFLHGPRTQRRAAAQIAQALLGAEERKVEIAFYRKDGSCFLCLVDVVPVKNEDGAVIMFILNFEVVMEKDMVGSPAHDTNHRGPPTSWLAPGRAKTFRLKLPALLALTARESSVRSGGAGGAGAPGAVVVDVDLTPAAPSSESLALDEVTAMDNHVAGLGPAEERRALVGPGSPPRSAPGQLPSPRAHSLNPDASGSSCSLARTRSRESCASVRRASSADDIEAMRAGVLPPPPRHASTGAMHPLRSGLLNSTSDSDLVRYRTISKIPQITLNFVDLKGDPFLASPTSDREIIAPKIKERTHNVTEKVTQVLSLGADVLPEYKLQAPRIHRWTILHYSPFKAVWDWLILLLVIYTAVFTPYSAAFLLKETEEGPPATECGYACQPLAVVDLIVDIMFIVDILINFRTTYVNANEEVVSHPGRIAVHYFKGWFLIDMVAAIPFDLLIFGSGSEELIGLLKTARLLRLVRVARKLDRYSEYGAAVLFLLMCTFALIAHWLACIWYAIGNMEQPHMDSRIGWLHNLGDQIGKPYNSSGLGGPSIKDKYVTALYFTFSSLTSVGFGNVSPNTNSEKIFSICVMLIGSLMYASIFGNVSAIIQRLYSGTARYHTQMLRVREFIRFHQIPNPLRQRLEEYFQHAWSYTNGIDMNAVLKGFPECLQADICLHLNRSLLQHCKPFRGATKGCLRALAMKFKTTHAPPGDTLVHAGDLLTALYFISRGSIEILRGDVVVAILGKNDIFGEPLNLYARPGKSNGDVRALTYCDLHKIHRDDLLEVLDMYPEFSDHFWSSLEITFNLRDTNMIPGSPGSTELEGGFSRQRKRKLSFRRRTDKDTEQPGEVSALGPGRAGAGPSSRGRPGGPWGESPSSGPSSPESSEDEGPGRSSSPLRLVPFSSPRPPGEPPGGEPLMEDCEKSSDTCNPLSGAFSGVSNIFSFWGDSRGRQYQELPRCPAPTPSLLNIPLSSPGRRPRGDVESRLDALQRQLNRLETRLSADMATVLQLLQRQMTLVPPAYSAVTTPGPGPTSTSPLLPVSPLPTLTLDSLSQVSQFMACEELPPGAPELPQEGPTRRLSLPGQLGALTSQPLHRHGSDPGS
row,SMILES,"hERG current change (%, negative = inhibition) at 1uM"
1,CN(C(=O)COC(=O)CSc1ccc(C(N)=O)cc1[N+](=O)[O-])C1CCCCC1,11.7%
2,COc1ccc(Nc2nc(N)c([N+](=O)[O-])c(N3CCCC3)n2)cc1,2.85%
3,Cc1ccc(S(=O)c2ccc(NC(=O)C3CC3)cc2C#N)cc1 (stereo not drawn),6.48%
4,CCOc1ccccc1N1CC(C(=O)NCCOc2ccccc2OC)CC1=O (stereo not drawn),4.57%
5,Cc1ccc(C(=O)NCCCn2ccnc2)cc1C,6.3%
6,CCOCCn1c(CN2CCN(c3cccc(Cl)c3)CC2)nc2c1c(=O)n(C)c(=O)n2C,-10.5%
7,Cc1ccc(N(C)S(=O)(=O)c2ccc3[nH]cc(C(=O)NCCCN4CCOCC4)c(=O)c3c2)cc1C,12%
8,CC(C)n1c(=N)c(C(=O)NCCc2ccccc2)cc2c(=O)n3ccccc3nc21,-78.6%
9,O=C(CSc1nnc(Cn2c(=O)sc3ccccc32)n1-c1ccccc1)Nc1nccs1,8.79%
10,Oc1ccc(Br)cc1/C=N/n1c(-c2ccccc2)n[nH]c1=S,15%
11,COc1ccccc1N1CCN(C(=O)COc2ccc(Cl)cc2)CC1,-39.9%
12,O=c1ccc2c(-c3ccccc3S(=O)(=O)O)c3ccc(O)c(O)c3oc-2c1O,7.19%
13,CCOC(=O)C(C(=O)Nc1cccc(C)n1)C1CCCCC1 (stereo not drawn),3.95%
14,CCC(=O)Nc1nnc(CSCc2ccc(F)cc2)s1,3.36%
15,COc1ccc(NC(=O)c2ccc(NC(=O)COC(=O)CC(NC(=O)c3ccccc3Cl)c3ccccc3)cc2)cc1 (stereo not drawn),3.61%
16,O=c1c2ccccc2nc(/C=C/c2c[nH]c3ccccc23)n1-c1ccc([N+](=O)[O-])cc1,13.4%
17,O=C(CCc1nnc(COc2ccccc2)o1)NCCc1cccs1,9.03%
18,CS(=O)(=O)N(CC(=O)NCCSC1CCCCC1)c1ccccc1,17%
19,O=C(O)CCC(=O)N1CN2CN(C(=O)CCC(=O)O)CC([N+](=O)[O-])(C2)C1,11.7%
20,COc1ccc(NS(=O)(=O)c2cc(NC(=O)Cn3cnc4c3c(=O)n(C)c(=O)n4C)ccc2C)cc1,8.77%
21,COc1ccc(CN2CCNCC2)c(OC)c1OC,13.9%

row,SMILES,"hERG current change (%, negative = inhibition) at 1uM"
1,COc1cccc(C2/C(=C(\O)c3ccc4c(c3)OCCO4)C(=O)C(=O)N2CCCn2ccnc2)c1 (stereo not drawn),19.5%
2,CCCSc1nc(O)c(CC)c(=O)n1C(C)CC (stereo not drawn),6.13%
3,O=[N+]([O-])c1cc(-c2cnc3ccccc3n2)ccc1Cl,8.3%
4,Nc1c(-c2ccc(Cl)cc2)cnn1-c1cccc([N+](=O)[O-])c1,8.88%
5,O=C(NCc1ccco1)C(=O)NCC1OCCCN1S(=O)(=O)c1ccccc1 (stereo not drawn),13.3%
6,CC1=C(C(=O)OCc2ccc3c(c2)OCO3)C(c2ccc(O)c([N+](=O)[O-])c2)NC(=O)N1 (stereo not drawn),7.48%
7,O=C(Nc1ccccc1)C1CCN(C(=O)c2ccco2)CC1,16.2%
8,CCOc1cc(C2NC(=O)c3ccccc3O2)ccc1OC(C)C (stereo not drawn),9.21%
9,Clc1ccc(CN2CCN(c3ncccn3)CC2)cc1,8.96%
10,CC1=NN(c2nc(-c3ccc(C)cc3)cs2)C(=O)C1N=Nc1cccc(O)c1 (stereo not drawn),5.44%
11,COC(=O)c1ccc(OCCn2cnc3ccccc3c2=O)cc1,-7.14%
12,FC(F)(F)c1cnc(N2CCN(C(=S)NCc3ccccc3)CC2)c(Cl)c1,4.6%
13,C/C(=N/Nc1ccnc2cc(Cl)ccc12)c1ccc(O)cc1,7.08%
14,CCCc1nc2c(ccc3ccccc32)cc1CC,4.82%
15,Cc1ccc(NC(=O)CSc2nc(NS(=O)(=O)c3ccccc3)cc(=O)[nH]2)cc1,6.77%
16,FC(F)(F)c1cc(Nc2ccccc2)nc(-c2ccccn2)n1,10.8%
17,NC(=O)c1oc2ccccc2c1NC(=O)CS(=O)(=O)c1ccccc1,11.6%
18,CC(C)CNC(=O)C1Nc2ccccc2C2C=CCC12 (stereo not drawn),1.88%
19,Cc1c(N2C(=O)CSC2=S)c(=O)n(-c2ccccc2)n1C,9.28%
20,CCn1c(=O)cc(SCC(=O)N2CCC(C)CC2)c2ccccc21,15.4%
21,O=C(NC1CCCCC1)C(=S)NCc1ccccc1,7.31%
